Data: PubChem BioAssay AID686978 (National Center for Advancing Translational Sciences (NCATS), 2013)
Hit rate of the full screen: of about 420,000 compounds, about 64,000 (15%) were called active. The shares of active, inactive and inconclusive entries below differ from those in the screen. Calls come from the whole dose curve; as a rule, active = well fitted inhibition curve with a large enough effect; inconclusive = small, poorly fitted or top-dose-only effect; inactive = flat fitted curve, though single readings scatter. Potencies of inconclusive entries are left out as doubtful fits.

assay: qHTS for Inhibitors of human tyrosyl-DNA phosphodiesterase 1 (TDP1): qHTS in cells in absence of CPT; conditions: DT40 Tdp1-/- hTDP1 cells, no CPT, ATP luminescence, 48 h; activity change, negative = growth inhibition: at 46.2 µM (top of the series) unless noted; note: nearly all actives have a fitted effect of over 55% in size
Outline: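 DT40 Tdp1-/-;hTDP1 cells, no CPT (DMSO vehicle only), 400 cells/well; compounds pin-transferred; ≥48 hr, 37 °C; CellTiter-Glo 30 min RT dark, luminescence read.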
% is set by controls: 0 for no effect and ±100 for the full control effect; potency is the fitted concentration of half-maximal effect; tags give direction and shape of the fitted curve.

| Compound | Potency | activity change, negative = growth inhibition |
| --- | --- | --- |
| CCOC(=O)c1ccc(-n2c(C)nc3ccc(Br)cc3c2=O)cc1 | inconclusive [inhibitor, partial curve] | – |
| Cc1ccc(Cc2c(-c3cccc(Cl)c3)nc3c4ccccc4ccn23)cc1 | inconclusive [inhibitor, single point] | – |
| COc1ccc(C)cc1Nc1nc2ccccc2c2nnc(C)n12 | inconclusive [inhibitor, partial curve, poor fit] | – |
| CC(=O)N1CCSc2ccc(S(=O)(=O)NCCc3ccc(Cl)cc3)cc21 | inconclusive [inhibitor, partial curve] | – |
| COC(=O)c1ccc2c(=O)n(CC3CCCO3)c(SCC(=O)NCCc3ccc(S(N)(=O)=O)cc3)nc2c1 (stereo unspecified) | – | inconclusive: -30.8% [inhibitor] |
| COc1ccc(/C=C(/NC(=O)c2ccc([N+](=O)[O-])cc2)C(=O)NC(C)(C)C)cc1 | inactive | – |
| Brc1cccc(-c2nnc3sc(CN4CCC5(CC4)OCCO5)cn23)c1 | inconclusive [inhibitor, single point] | – |
| COc1ccc(CN(Cc2nc3ccccc3c(=O)[nH]2)C(=O)NC2CCCCC2)cc1 | inactive | – |
| CN(C(=O)CN1CCN(c2cc(-c3ccc(-c4ccccc4)cc3)ncn2)CC1)c1ccccc1 | inconclusive [inhibitor, single point] | – |
| CCc1nc2cccnc2n1-c1ccc(CC(=O)Nc2ccccc2Cl)cc1 | inconclusive [inhibitor, single point] | – |
| CC(=C/c1ccccc1)/C=N/NC(=O)c1nnn(-c2nonc2N)c1CN1CCC(C)CC1 | active: 18.4 µM | – |
| COc1cccc(NC(=O)CN(C)C(=O)C2CC(=O)N(CCc3ccc(OC)c(OC)c3)C2)c1 (stereo unspecified) | inactive | – |
| CCOC(=O)c1ccc(NC(=O)c2nc[nH]c2C(=O)NC[C@@H](C)O)cc1 | inactive | – |
| O=S(=O)(Cc1ccc(Cl)cc1)CC(O)COCc1ccccc1 (stereo unspecified) | inactive | – |
| Cc1ccc(NC(=S)Nc2cccc3cnccc23)cc1 | active: 16.4 µM | – |
| CC(=O)c1ccc(S(=O)(=O)N2CCC(c3nnc(SCCN4CCCC4)n3C)CC2)cc1 | inconclusive [inhibitor, single point] | – |
| COCc1ccc(C(=O)N2CCCC(Nc3ccc4c(c3)OCCO4)C2)o1 (stereo unspecified) | inactive | – |
| COc1ccccc1-c1noc(CSc2nnc(Cc3ccccc3)n2-c2ccc(C)c(C)c2)n1 | active: 23.1 µM | – |
| Cc1ccc(C)c2sc(NC(=O)c3ccc(N4CCCCC4)c([N+](=O)[O-])c3)nc12 | active: 23.1 µM | – |
| O=C(Nc1cccc(F)c1)N1CCC2(CC1)CCN(C(=O)c1cnccn1)CC2 | inactive | – |
| Cc1ccc(C(=O)NC(=S)Nc2ccc(-c3cc4ccccc4oc3=O)cc2)c(C)c1 | active: 23.1 µM | – |
| CC12CCC3c4cc(CN5CCOCC5)c(O)cc4CCC3C1CCC2=O (stereo unspecified) | inconclusive [inhibitor, single point] | – |
| CC(C)C(=O)Nc1ccc2nc(SCC(=O)N3CCOCC3)sc2c1 | inconclusive [inhibitor, single point] | – |

| Compound | Potency | activity change, negative = growth inhibition |
| --- | --- | --- |
| CCOC(=O)c1c(-c2ccsc2)csc1N | inconclusive [inhibitor, single point] | – |
| Cc1ccc(N2CC(c3nnc(NC(=O)c4ccco4)s3)CC2=O)cc1Cl (stereo unspecified) | – | inconclusive: -34.5% [inhibitor] |
| CN(CC(=O)Nc1ccc(F)cc1)C(=O)c1ccccc1OCc1ccc(F)cc1 | inactive | – |
| Cc1ccc(C(OC(=O)c2ccco2)C(=O)NC(C)(C)C)cc1 (stereo unspecified) | inactive | – |
| COc1cccc(C(=O)Nc2cc3c(cc2N2CCCC2)n(C)c(=O)n3C)c1 | inconclusive [inhibitor, partial curve] | – |
| CCCOc1ccccc1N/C(=N\S(=O)(=O)c1ccc(C)cc1)Nc1nc(C)cc(C)n1 | active: 14.6 µM | – |
| O=C(COC(=O)c1ccc(F)c(S(=O)(=O)N2CCOCC2)c1)NCc1ccc(Cl)cc1 | inactive | – |
| C=C(C)Cn1c2ccc(NC(=O)CCc3cccc(Cl)c3)cc2c(=O)n1C | active: 14.6 µM | – |
| O=S(=O)(c1ccc(Br)cc1)c1nnn2c1nc(NC1CCCCCC1)c1sccc12 | inactive | – |
| CC(C)CNC(=O)C1C(=O)Nc2ccccc2C(=O)N1C(C)(C)C (stereo unspecified) | inactive | – |
| Cc1cc(NC(=O)CCC(=O)N(c2ccc(C)c(F)c2)C(C(=O)NC2CCCC2)c2ccco2)no1 (stereo unspecified) | inconclusive [inhibitor, single point] | – |
| COc1ccc(OC)c(NC(=O)CCc2nnc3ccc(N4CCC(C)CC4)nn23)c1 | inconclusive [inhibitor, partial curve, poor fit] | – |
| CCSc1nnc(NC(=O)c2ccc3ccccc3n2)s1 | inconclusive [inhibitor, single point] | – |
| COC(=O)c1cc(NC(=O)CCc2c(C)nc3c(c(C)nn3C(C)(C)C)c2C)cc(C(=O)OC)c1 | inconclusive [inhibitor, single point] | – |
| COc1ccc(Nc2oc(-c3ccc(COc4cccc(C)c4)o3)nc2C#N)cc1 | inconclusive [inhibitor, single point] | – |
| COc1cc(C(O)c2nc(-c3cccc(NC(C)=O)c3)cs2)ccc1F (stereo unspecified) | active: 16.4 µM | – |
| Cn1nnnc1SCCCNCc1ccc(Cl)cc1 | inconclusive [inhibitor, single point] | – |
| CCC1CCCCN1CCCNC(=O)CS(=O)(=O)Cc1nc(-c2cccc(OC)c2)oc1C (stereo unspecified) | inconclusive [inhibitor, single point] | – |
| CN(C(=S)Nc1ccc(SC(F)F)cc1)c1ccc(O)cc1 | inconclusive [inhibitor, single point] | – |
| CCCCN(C)C(=O)c1nc2ccccn2c1CN(C)Cc1csc(C)n1 | inactive | – |
| CNC(=S)NNC(=O)c1ccc(=O)n(Cc2ccc(Cl)cc2Cl)c1 | inconclusive [inhibitor, partial curve, poor fit] | – |
| Cc1ccc(C)c(N=Cc2c(O)c3ccccc3oc2=O)c1 | inactive | – |
| O=C1CC2(CC(c3ccc(Cl)cc3)=NO2)C(=O)N1c1ccccc1 (stereo unspecified) | inactive | – |
